Assay results as given in PubChem BioAssay AID2100 (National Center for Advancing Translational Sciences (NCATS), 2009).
“And” between values parts separate entries of the source, which are not always exact repeats. Equal values may be shown once. About 1,200 (0.4%) of roughly 300,000 compounds were called active. The shares of active, inactive and inconclusive entries below differ from those in the screen. Calls come from the whole dose curve; as a rule, active = well fitted inhibition curve with a large enough effect; inconclusive = small, poorly fitted or top-dose-only effect, or another doubt; inactive = no such curve, though single readings can be large or run the other way. Potencies of inconclusive entries are doubtful fits and often do not repeat.

target: Lysosomal alpha-glucosidase (Homo sapiens) (UniProt P10253); test: qHTS Assay for Inhibitors and Activators of Human alpha-Glucosidase Cleavage of Glycogen; conditions: recombinant GAA, glycogen substrate, Amplex Red glucose oxidase fluorescence; activity change, negative = inhibition: at 76.4 µM (top of the series) unless noted;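 for activity change, negative = inhibition: 0% = full enzyme reaction and -100% = no-enzyme basal signal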
Summary of the method: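 Recombinant human alpha-glucosidase (4 nM final) hydrolysed bovine liver glycogen (30 ug) for 40 min at 37 C in pH 5.0 citrate/phosphate with 0.01% Tween-20. Released glucose detected by glucose oxidase/Amplex Red, Ex 573/Em 610 nm. Compounds up to 77 uM; AC50 from Hill fits.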
Potency is the fitted concentration of half-maximal effect.

**Q.** Which Potency does the source give for `CC(C)CSc1n[nH]c(=S)s1` here?
**A.** inconclusive: 31.4 µM [inhibitor, partial curve]

**Q.** How did the “activity change, negative = inhibition” value turn out when `O=C(O)C1CCN(c2ccc([N+](=O)[O-])cc2[N+](=O)[O-])CC1` was run?
**A.** inactive: 0.683%

**Q.** With `CC1(C)Oc2ccc3ccc(=O)oc3c2/C(=C/NNC(N)=S)C1=O` as the molecule, how does the Potency read?
**A.** inconclusive: 31.6 µM [inhibitor, single point]

**Q.** How did the “activity change, negative = inhibition” value turn out when `Cn1c(N)c(C#N)c2c(c1=S)CSC(C)(C)C2` was run?
**A.** inactive: -2.19%

**Q.** For `CC(=O)C1=C(C)NC(SCc2cccc([N+](=O)[O-])c2)=C(C#N)C1c1ccco1` (configuration not stated), which “activity change, negative = inhibition” value is on record?
**A.** inactive: -7.21%

**Q.** With `COc1ccc(Oc2nc3c(C)cccn3c(=O)c2/C=C(\C#N)C(N)=O)cc1` as the molecule, how does the Potency read?
**A.** inconclusive: 50.1 µM [inhibitor, single point]

**Q.** For `O=S(=O)(Nc1ccc2ccccc2n1)c1ccc2c(c1)CCO2`, which “activity change, negative = inhibition” value is on record?
**A.** inactive: 2.6%

**Q.** How did the Potency turn out when `CCN(CC)c1ccc(/C=N/N(c2ccccc2)c2ccccc2)c(O)c1` was run?
**A.** inconclusive: 31.6 µM [inhibitor, partial curve]

**Q.** For `Oc1ccc(Br)cc1C=Nc1cccn2cc(-c3ccccc3)nc12`, which Potency is on record?
**A.** inconclusive: 17.6 µM [inhibitor, partial curve]

**Q.** For `CS(=O)(=O)c1ccc2c(c1)sc1nc(=O)c(/C=C3/C=CC(=O)C(O)=C3)c(N)n12`, which Potency is on record?
**A.** active: 8.91 µM

**Q.** `c1ccc(-c2nnc3n2NC(c2ccc4c(c2)OCO4)S3)cc1` (configuration not stated) was tested. Which Potency did it give?
**A.** inconclusive: 19.8 µM [inhibitor, single point]

**Q.** `COc1cc(N=Cc2c(O)[nH]c3ccccc23)cc(OC)c1OC` was tested. Which Potency did it give?
**A.** inconclusive: 14 µM [inhibitor, partial curve]

**Q.** Which Potency does the source give for `CCc1c(C)sc(NC(=S)N2CCN(CC)CC2)c1C(=O)OC` here?
**A.** inconclusive: 11.2 µM [inhibitor, full curve]

**Q.** With `COc1ccc(OC)c(S(=O)(=O)Nc2ccc(O)c3ccccc23)c1` as the molecule, how does the Potency read?
**A.** active: 14.1 µM

**Q.** How did the “activity change, negative = inhibition” value turn out when `COc1ccc(S(=O)(=O)N2CCN(C(=O)COc3ccccc3)CC2)cc1` was run?
**A.** inactive: -2.49%

**Q.** For `Nc1ccc2nc(-c3cccc(-c4nc5ccc(N)cc5[nH]4)c3)[nH]c2c1`, which Potency is on record?
**A.** inconclusive: 44.7 µM [inhibitor, single point]

**Q.** `COC(=O)CCCC1=CC2=C(c3ccccc3)C(=O)C(C)(OC(=O)C3CCCC3)C(=O)C2=CN1CCN1CCOCC1` (configuration not stated) was tested. Which “activity change, negative = inhibition” value did it give?
**A.** inactive: -6.35%

**Q.** Which “activity change, negative = inhibition” value does the source give for `COc1ccc(CN(C)c2ccc(-c3nc(-c4ccc(OC)c(OC)c4)no3)cc2[N+](=O)[O-])cc1` here?
**A.** inactive: 6.93% [at 76.3 µM]

**Q.** `O=C(c1cccs1)N1CCC(c2nc3c(nnn3Cc3ccccc3)c(=O)[nH]2)CC1` was tested. Which “activity change, negative = inhibition” value did it give?
**A.** inactive: 3.37%

**Q.** For `COc1cc(C(=O)N(Cc2ccc(N(C)C)cc2)C2CCS(=O)(=O)C2)cc(OC)c1OC` (configuration not stated), which Potency is on record?
**A.** inconclusive: 35.2 µM [inhibitor, partial curve]

**Q.** For `S=C(Nc1ccccn1)c1ccccn1`, which Potency is on record?
**A.** inconclusive: 6.31 µM [inhibitor, full curve] and inconclusive: 9.92 µM [inhibitor, partial curve]

**Q.** With `Oc1ccc(N2CCN(c3ncnc4sc5c(c34)CCC5)CC2)cc1` as the molecule, how does the Potency read?
**A.** active: 14 µM

**Q.** With `C/C(CCC(=O)O)=N/Nc1ccc([N+](=O)[O-])cc1[N+](=O)[O-]` as the molecule, how does the Potency read?
**A.** inconclusive: 20 µM [inhibitor, partial curve, poor fit]

**Q.** Which “activity change, negative = inhibition” value does the source give for `COc1cccc(NC(=O)Cn2c(=O)n(Cc3ccc4c(c3)OCO4)c(=O)c3oc4ccccc4c32)c1` here?
**A.** inactive: 13.5% [at 76.3 µM]

**Q.** Which Potency does the source give for `CC(=O)C(Sc1nc(N2CCOCC2)nc(N2CCOCC2)n1)C(=O)Nc1ccccc1` (configuration not stated) here?
**A.** inconclusive: 19.8 µM [inhibitor, partial curve, poor fit]

**Q.** `CCNC(=S)NNC(=O)Cn1nc(C)cc1C` was tested. Which Potency did it give?
**A.** inconclusive: 7.08 µM [inhibitor, partial curve]

**Q.** How did the Potency turn out when `O=S(=O)(Nc1ccc(O)c(Sc2nc3ccccc3s2)c1)c1cc(Cl)ccc1Cl` was run?
**A.** inconclusive: 31.6 µM [inhibitor, single point]

**Q.** For `COc1cc(N/N=C(\C)c2ccc(N)cc2)nc(-c2ccccc2)n1`, which Potency is on record?
**A.** inconclusive: 35.5 µM [inhibitor, partial curve]

**Q.** For `CCc1ccc(O)c(N=Cc2ccccc2O)c1`, which Potency is on record?
**A.** active: 11.1 µM

**Q.** For `COc1ccc(CN=Cc2[nH]c3ccc(Br)c(Cl)c3c2O)cc1`, which “activity change, negative = inhibition” value is on record?
**A.** inactive: -13.3%

**Q.** For `Cn1c(=O)c2[nH]c(N=NNc3ccccc3F)nc2n(C)c1=O`, which Potency is on record?
**A.** inconclusive: 22.4 µM [inhibitor, partial curve]

**Q.** With `COCCN1C(=O)C(=O)/C(=C(/O)c2ccc(S(=O)(=O)N3CCOCC3)cc2)C1c1ccc(O)c(OC)c1` (configuration not stated) as the molecule, how does the Potency read?
**A.** inconclusive: 50.1 µM [inhibitor, single point]

**Q.** With `O=C(CNC(=O)c1ccccc1)NCCc1ccc(O)c(O)c1` as the molecule, how does the Potency read?
**A.** inconclusive: 50.1 µM [inhibitor, single point]

**Q.** `N#C/C(=C\c1ccc(N2CCOCC2)o1)c1nc2ccccc2[nH]1` was tested. Which “activity change, negative = inhibition” value did it give?
**A.** inactive: -15.8%

**Q.** How did the Potency turn out when `Cc1cc(NC(=O)CN2CCN(c3ccc(O)cc3)CC2)no1` was run?
**A.** active: 8.91 µM

**Q.** For `Cc1ccc(CNc2oc(-c3cccs3)nc2C#N)cc1`, which Potency is on record?
**A.** active: 22.4 µM

**Q.** `Cc1cccc(C)c1-n1c(C)cc(/C=C2\C(=O)NN(c3ccccc3)C2=O)c1C` was tested. Which Potency did it give?
**A.** inconclusive: 22.2 µM [inhibitor, single point]

**Q.** With `OCCCNC(=S)Nc1ccc(Nc2ccccc2)cc1` as the molecule, how does the Potency read?
**A.** active: 14.1 µM

**Q.** With `O=S(=O)(NCC(c1ccccc1)N1CCc2ccccc21)c1ccc(Cl)cc1` (configuration not stated) as the molecule, how does the Potency read?
**A.** inconclusive: 3.98 µM [inhibitor, full curve]

**Q.** For `Cc1nn(C)c(C(=O)NNC(=S)NCc2ccco2)c1Br`, which Potency is on record?
**A.** inconclusive: 17.8 µM [inhibitor, partial curve]

**Q.** With `COC(=O)c1cc(Nc2cc(C)c3c(O)cccc3n2)cc(C(=O)OC)c1` as the molecule, how does the Potency read?
**A.** inconclusive: 14.1 µM [inhibitor, partial curve]

**Q.** With `N#CC1=C(N)C2=C(N3CCCCC3)CCCC2C1(C#N)C#N` (configuration not stated) as the molecule, how does the Potency read?
**A.** active: 22.4 µM

**Q.** `COc1ccc(/C=N/NC2=NCCCCC2)cc1` was tested. Which Potency did it give?
**A.** inconclusive: 31.6 µM [activator, partial curve]

**Q.** For `CCCCNC(=S)NNC(=O)c1ccoc1C`, which Potency is on record?
**A.** inconclusive: 22.2 µM [inhibitor, single point]

**Q.** With `COC(=O)c1c(N)n(-c2ccc(NC(C)=O)cc2)c2nc3ccccc3nc12` as the molecule, how does the “activity change, negative = inhibition” value read?
**A.** inactive: 5.82%

**Q.** With `COc1ccc(-c2csc(Nc3ccc(S(=O)(=O)Nc4cc(C)on4)cc3)n2)cc1C` as the molecule, how does the Potency read?
**A.** inconclusive: 35.5 µM [inhibitor, single point]

**Q.** For `NNS(=O)(=O)c1ccc(Sc2ccccn2)c([N+](=O)[O-])c1`, which “activity change, negative = inhibition” value is on record?
**A.** inactive: -14.2%

**Q.** How did the Potency turn out when `COc1ccc(NC2CCCN(C(=O)COc3ccc(Cl)cc3C)C2)cc1OC` (configuration not stated) was run?
**A.** inconclusive: 20 µM [inhibitor, partial curve]

**Q.** For `Cc1cccc(-c2nc(Nc3ccc(O)cc3)c3ccccc3n2)c1`, which Potency is on record?
**A.** inconclusive: 15.7 µM [inhibitor, partial curve]

**Q.** For `Cc1cc(NNC(=O)c2cccc(C(F)(F)F)c2)nc2c1c(C)nn2C`, which Potency is on record?
**A.** inconclusive: 35.5 µM [inhibitor, partial curve]

**Q.** How did the Potency turn out when `Cc1[nH][nH]c(=O)c1C(c1ccc(O)c([N+](=O)[O-])c1)c1c(C)[nH][nH]c1=O` was run?
**A.** inconclusive: 31.6 µM [inhibitor, single point]

**Q.** For `Oc1ccc(N2CCN(Cc3nc4ccccc4[nH]3)CC2)cc1`, which Potency is on record?
**A.** active: 8.91 µM

**Q.** With `CC(C)=NNc1nc(-c2ccc([N+](=O)[O-])cc2)cs1` as the molecule, how does the Potency read?
**A.** inconclusive: 50.1 µM [inhibitor, single point]

**Q.** For `COc1ccc(Nc2nc(-c3ccc(OC)cc3)cs2)cc1`, which Potency is on record?
**A.** inconclusive: 10 µM [inhibitor, partial curve]

**Q.** `CN(CC(=O)Nc1cccc(F)c1)S(=O)(=O)c1ccc2c(c1)n(C)c(=O)c(=O)n2C` was tested. Which “activity change, negative = inhibition” value did it give?
**A.** inactive: -8.95% [at 76.3 µM]

**Q.** For `COc1ccc(Br)cc1Cn1nnc(C(=O)Nc2cccc(SC)c2)c1N`, which “activity change, negative = inhibition” value is on record?
**A.** inactive: -10.3% [at 76.3 µM]

**Q.** Which Potency does the source give for `Oc1ccc(-c2nc3ccc(Cl)cn3c2Nc2ccc(Cl)cc2)cc1` here?
**A.** inconclusive: 3.98 µM [inhibitor, full curve, poor fit]

**Q.** Which “activity change, negative = inhibition” value does the source give for `Cc1ccccc1S(=O)c1ccccc1C(=O)O` (configuration not stated) here?
**A.** inactive: -2.22%

**Q.** With `O=C1CC(=O)N(CCNc2ncc(C(F)(F)F)cc2Cl)C(=O)N1` as the molecule, how does the “activity change, negative = inhibition” value read?
**A.** inactive: -12.6%

**Q.** `O=C(NNC(=S)NC(=O)c1ccccc1)c1ccc([N+](=O)[O-])cc1` was tested. Which Potency did it give?
**A.** inconclusive: 35.5 µM [inhibitor, single point]

**Q.** For `Cc1ccccc1NC(=O)C1CC(=O)N(c2ccc3c4c(cccc24)CC3)C1` (configuration not stated), which Potency is on record?
**A.** inconclusive: 11.2 µM [inhibitor, partial curve]

**Q.** With `Cc1cc(Br)ccc1NC(=O)CSc1c2c(nc3ccccc13)CCC2` as the molecule, how does the “activity change, negative = inhibition” value read?
**A.** inactive: -11.6% [at 76.3 µM]

**Q.** `Nc1ccc(N2CCN(C(=O)c3cccs3)CC2)cc1` was tested. Which Potency did it give?
**A.** inconclusive: 15.7 µM [inhibitor, partial curve]

**Q.** `Cc1nc(N)sc1-c1csc(NCc2ccccc2)n1` was tested. Which Potency did it give?
**A.** inconclusive: 28.2 µM [inhibitor, single point]

**Q.** Which “activity change, negative = inhibition” value does the source give for `CCCNC(C)C(=O)Nc1ccccc1C` (configuration not stated) here?
**A.** inactive: 6.87%

**Q.** With `CC1=C(C(=O)Nc2cccnc2)C(c2ccc(C)cc2)n2nc(SCc3ccccc3F)nc2N1` (configuration not stated) as the molecule, how does the “activity change, negative = inhibition” value read?
**A.** inactive: -10.3% [at 76.3 µM]

**Q.** For `Cc1cccc(N2C(=O)Cc3ccccc3C2=O)c1`, which Potency is on record?
**A.** inconclusive: 50.1 µM [inhibitor, single point]

**Q.** How did the Potency turn out when `CCCn1c(CCC(=O)O)ccc1-c1cccs1` was run?
**A.** inconclusive: 28 µM [inhibitor, single point]

**Q.** With `C/C(=N\Nc1ccccn1)c1cccs1` as the molecule, how does the Potency read?
**A.** inconclusive: 8.91 µM [inhibitor, partial curve]

**Q.** For `Cc1cccc2nc(-c3ccccn3)c(Nc3ccc(F)cc3)n12`, which Potency is on record?
**A.** inconclusive: 10 µM [inhibitor, full curve]

**Q.** For `COc1ccccc1CCNC(=O)C1CCC(=O)N(Cc2cccc(F)c2)C1` (configuration not stated), which Potency is on record?
**A.** inconclusive: 50.1 µM [inhibitor, single point]

**Q.** With `C/C(=N\NC(=O)c1c[nH]c2ccccc12)c1ccco1` as the molecule, how does the activity change, negative = inhibition read?
**A.** inconclusive: 19.3% [activator]
